Test results as given in PubChem BioAssay AID1745853 (National Center for Advancing Translational Sciences (NCATS), 2022).
This is one part of the list. The main result of the screen is listed elsewhere. These columns were measured beside it and carry no call.

Columns and labels:
Test in all cases: Primary Screen for Target Class Profiling of Small Molecule Inhibitors of Methyltransferases
[1] = target: Glycine N-methyltransferase (Homo sapiens) (UniProt Q14749); conditions: purified enzyme, MTase-Glo SAH luminescence; measured here: GNMT inhibition; at 40 µM; stronger effect = lower value
Procedure, shortened: (§1)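 Each enzyme was assayed with SAM and its substrate. SAH formation detected by MTase-Glo luminescence; single-point 40 uM screen[…].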

[2] = target: Guanidinoacetate N-methyltransferase (Homo sapiens) (UniProt Q14353); conditions: purified enzyme, MTase-Glo SAH luminescence; measured here: GAMT inhibition; at 40 µM; stronger effect = lower value
Procedure, shortened: as §1

[3] = target: Histamine N-methyltransferase (Homo sapiens) (UniProt P50135); conditions: purified enzyme, MTase-Glo SAH luminescence; measured here: HNMT inhibition; at 40 µM; stronger effect = lower value
Procedure, shortened: as §1

[4] = target: Nicotinamide N-methyltransferase (Homo sapiens) (UniProt P40261); conditions: purified enzyme, MTase-Glo SAH luminescence; measured here: NNMT inhibition; at 40 µM; stronger effect = lower value
Procedure, shortened: as §1

[5] = target: Phenylethanolamine N-methyltransferase (Homo sapiens) (UniProt P11086); conditions: purified enzyme, MTase-Glo SAH luminescence; measured here: PNMT inhibition; at 40 µM; stronger effect = lower value
Procedure, shortened: as §1
% is set by controls: 0 for no effect and ±100 for the full control effect.

Structure (SMILES) | activity change, negative = inhibition [1] [%] | activity change, negative = inhibition [2] [%] | activity change, negative = inhibition [3] [%] | activity change, negative = inhibition [4] [%] | activity change, negative = inhibition [5] [%]
O=C(Nc1ccc(S(=O)(=O)Nc2nccs2)cc1)C(c1ccccc1)c1ccccc1 | 0.084 | -5.39 | 2.35 | -36.6 | -12.7
O=C1c2ccccc2-c2c(NCCc3ccccc3)c(=O)[nH]c3cccc1c23 | – | -15.6 | – | -37.5 | -13.8
COc1cccc(CN2C(=O)c3cc4occc4n3CC2(C)C(=O)NC2CCCCC2C)c1 (stereo unspecified) | -0.769 | 0.183 | 0.481 | -3.44 | -2.66
COc1ccc2cc3n(c2c1)CC(C)(C(=O)NC1CCCC1)N(C1CCCCCC1)C3=O (stereo unspecified) | 0.048 | 1.18 | 6.16 | -1.76 | -0.107
CCCn1c(=O)c2ccc(Cl)cc2n2c(=O)n(CC(=O)Nc3ccc(OC)cc3)nc12 | -0.031 | 4.94 | 1.96 | -0.802 | 1.78
CC(C)Cn1c(=O)c2ccccc2n2c(CCC(=O)N3CCN(c4ccc(F)cc4)CC3)nnc12 | -16 | 3.18 | 0.505 | -35.5 | -5.13
CC(C)(C)[C@H](NC(=O)c1ccc(N)c(Cl)c1)C(=O)N1CCC[C@H]1C(=O)N[C@H](C#N)CC(=O)O | -9.3 | -6.92 | -1.64 | -16.4 | 2.18
OCCNC1CCCc2c1[nH]c1ccc(-c3ccccc3)cc21 (stereo unspecified) | -1.65 | 3.96 | 3.7 | -21.8 | -6.54
CN1C(=O)c2cc(C(=O)NCCc3ccc(Cl)cc3)nn2CC1(C)C(=O)NC1CCCCCC1 (stereo unspecified) | 6.55 | 0 | 7.3 | -2.08 | 5.43
C/C=C/C=C/C=C/C(=O)O[C@@H]1[C@@H](OC)C2=C(C(=O)N(C(C)C(=O)O)C2)[C@@]2(C)CCCC(C)(C)[C@H]12 (stereo partly specified) | -15 | 5.74 | 10.9 | -9.16 | 7.57
Cc1cc(C[C@@H]2COC[C@@H]2NC(=O)c2cnn3cc(CCO)cnc23)on1 | -0.249 | 2.38 | 3.52 | -1.63 | -1.05
Cc1cccc(-c2nnn3c2nc(NCCc2ccc(S(N)(=O)=O)cc2)c2ccccc23)c1 | -13.8 | -4.85 | -2.57 | -14.4 | -7.06
CCOc1ccc(N2C(=O)c3cc(-c4ccccc4)nn3CC2(C)C(=O)NCCCOC)cc1 (stereo unspecified) | -2.88 | 3.24 | -2.25 | -7.49 | -5.38
COc1ccc(C)cc1Nc1nc2c(S(=O)(=O)c3ccccc3)nnn2c2ccccc12 | -3.15 | -1.51 | -0.84 | -6.98 | -6.33
COc1ccc(CN2C(=O)c3c(-n4cccc4)c4cc(C)ccc4n3CC2(C)C(=O)NC2CCC(C)CC2)cc1 (stereo unspecified) | -1.7 | 3.14 | 3.81 | 0.752 | -1.72
COc1ccccc1C(=O)Nc1cccc(NC(=O)c2cccc(C)c2)c1 | -6.53 | -8.26 | 2.3 | -21.3 | -6.74
Cc1ccccc1CNC[C@H]1O[C@@H]2C[C@@H](CC(=O)NCc3nccn3C)O[C@@H]2[C@@H]1O | -4.41 | -8.08 | -2.72 | -15.1 | -7.34
CCOc1ccc(C(=O)CSc2nnc3n(C)c(=O)c4ccc(C(=O)NC5CCCC5)cc4n23)cc1 | -3.16 | -2.95 | 1.18 | 3.96 | -2.19
CCn1nc(CNC(=O)c2c(F)cccc2Cl)c2ccccc21 | 13.4 | 3.58 | 13.4 | 10.3 | 12.8
CCn1ncc(N2CCCC(CC(=O)Nc3cc(OC)cc(OC)c3)C2)cc1=O (stereo unspecified) | -3.05 | 3.48 | 3.37 | -6.04 | 3.01

Structure (SMILES) | activity change, negative = inhibition [1] [%] | activity change, negative = inhibition [2] [%] | activity change, negative = inhibition [3] [%] | activity change, negative = inhibition [4] [%] | activity change, negative = inhibition [5] [%]
Cn1cccc1CN1CC(F)(F)C[C@H]1c1nnc(C2CC2)o1 | -11.5 | -8.98 | -3.82 | -11.9 | -4.88
O=C(c1ccc(Cl)cc1)N1CCCC2(CNc3ncccc3[S+](=O)([O-])N2)C1 (stereo unspecified) | -0.153 | -0.562 | 1.62 | -0.988 | 2.52
CCc1cccc(NC(=O)Cn2c(=O)oc3cc(S(=O)(=O)N4CC(C)CC(C)C4)ccc32)c1 (stereo unspecified) | -8.11 | 0.227 | 5.16 | -0.118 | -38.3
O=C(c1ccc2c(c1)N(C(=O)c1ccccc1)CC2)N1CCN(c2ccc(Cl)cc2)CC1 | -2.57 | -3.38 | -2.77 | -0.383 | 2.03
COCCCNC(=O)C1(C)Cn2nc(-c3ccccc3)cc2C(=O)N1c1ccc(C)cc1C (stereo unspecified) | 0.004 | 1.16 | -3.79 | 1.98 | -5.36
Cc1cccc(/C=N/Nc2cc(N3CCOCC3)n3nc(-c4ccncc4)cc3n2)c1 | 1.36 | 5.33 | 0.014 | -25.9 | -8.31
CN1C(=O)c2cc(C(=O)NCc3cccc(F)c3)nn2CC1(C)C(=O)NC1CCCC1 (stereo unspecified) | -4.5 | 0.008 | -1.69 | -4.08 | -1.84
COCCN1C(=O)c2c(NC(C)=O)c3cc(F)ccc3n2CC1(C)C(=O)NC1CCCCC1 (stereo unspecified) | -3.89 | -3.88 | 3.89 | -6.28 | -5.48
CN(Cc1cccnc1)C(=O)c1n[nH]c2c1CN(Cc1cccnc1)CC2 | -8.19 | -8.39 | -4.33 | -15.6 | -9.14
O=C(NCc1ccncc1)c1ccc(-c2cccs2)nc1 | 12.3 | 4.5 | 11.7 | 6.58 | 6.91
CCOc1ccc(N(C(=O)c2ccccc2F)S(=O)(=O)c2ccc3c(c2)n(C)c(=O)n3C)cc1 | -17.1 | 2.82 | -0.885 | -9.15 | -3.15
CC(C)CNC(=O)c1ccc2c(=O)n(C(C)C)c3nn(CC(=O)N(C)c4ccccc4)c(=O)n3c2c1 | 2.12 | 5.03 | 5.96 | -2.31 | 0.303
O=C1CCCC2=C1C1(CCSCC1)N=C(Nc1nc3ccccc3o1)N2 | – | -3.46 | – | -11.1 | -5.56
CNS(=O)(=O)CCNc1nc(-c2ccccn2)nc2c1c(C)nn2C | -10.8 | -2.42 | -5.98 | -6.78 | -7.13
Cc1ccc(CNC(=O)c2cc3n(n2)CC(C)(C(=O)NCCC(C)C)N(C)C3=O)cc1 (stereo unspecified) | 2.14 | 3.67 | 1.35 | 8.06 | 1.12
CCCn1c(=O)c2ccc(Cl)cc2n2c(=O)n(CC(=O)NCc3ccc(C)cc3)nc12 | 4.54 | 0 | 5.97 | 4.35 | 3.95
CCCN1C(=O)c2cc(-c3ccccc3)nn2CC1(C)C(=O)NCc1ccccc1OC (stereo unspecified) | -2.85 | 2.18 | 0.512 | -4.03 | -2.04
CC1(C(=O)NCc2ccc(F)cc2)Cn2cnc(C(=O)Nc3ccc4c(c3)OCCO4)c2C(=O)N1C1CC1 (stereo unspecified) | -5.76 | 0 | 0.635 | -3.55 | -4.04
CC(C)CNC(=O)c1ccc2c(=O)n(Cc3ccccc3)c3nn(Cc4cccc(Cl)c4)c(=O)n3c2c1 | 0.852 | 5.78 | 1.93 | 0.658 | 1.64
Cc1cc(C)c(NS(=O)(=O)c2ccc3c(c2)n(C)c(=O)n3C)c(C)c1 | -6.08 | 2.2 | -9.52 | -35.6 | -6.45

Structure (SMILES) | activity change, negative = inhibition [1] [%] | activity change, negative = inhibition [2] [%] | activity change, negative = inhibition [3] [%] | activity change, negative = inhibition [4] [%] | activity change, negative = inhibition [5] [%]
CC1CCC(NC(=O)Cn2c(=O)oc3cc(S(=O)(=O)NCc4ccccc4)ccc32)CC1 (stereo unspecified) | -5.07 | 4.84 | -4.29 | -2.51 | -10.4
CC1CC(C)CN(CCCN2C(=O)c3nc4ccccc4n3CC2(C)C(=O)NC2CCCCCC2)C1 (stereo unspecified) | -4.11 | 4.13 | -0.445 | 3.5 | -2.17
CCCN1C(=O)c2c(C(=O)NCCc3ccccc3)ncn2CC1(C)C(=O)NCc1ccc(OC)cc1 (stereo unspecified) | 1.34 | 0.294 | -0.868 | 4.66 | 3.9
CC1(C(=O)NC2CCCC2)Cn2c(ccc2-c2ccco2)C(=O)N1c1ccc2c(c1)OCCO2 (stereo unspecified) | -6.64 | 0 | 8.64 | 6.92 | 1.4
CN1C(=O)CC[C@]2(C(=O)NCc3ccco3)CCCC[C@@H]12 | -2.51 | -2.79 | 1.86 | -2.77 | 0.365
Cn1c(=O)c2ccc(C(=O)NC3CCCC3)cc2n2c(=O)n(Cc3c(F)cccc3Cl)nc12 | 1.46 | 5.47 | 0.466 | 2.85 | 1.1
COc1cccc(CNc2nc3c(-c4ccccc4)nnn3c3ccccc23)c1 | 0.118 | 0 | 4.52 | 4.97 | -1.21
COc1cccc(CN2C(=O)c3cc4ccc(OC)cc4n3CC2(C)C(=O)NC2CCCCC2)c1 (stereo unspecified) | 5.49 | 5.28 | 5.42 | -0.351 | 2.15
CCOCCCNC(=O)c1cc2c(=O)[nH]c(-c3ccccc3)cn2n1 | -6.53 | -4.27 | -4.38 | -3.96 | -20.1
N#Cc1ccc2[nH]cc(CCCCN3CCN(c4ccc5oc(C(N)=O)cc5c4)CC3)c2c1 | 4.58 | 6.01 | -27.3 | -50.9 | -10.1
COc1cccc(CN2CCC(n3cc[nH]c3=O)CC2)c1 | -5.73 | -8.43 | -6.4 | -15.1 | -7.17
CC(C)CCn1c(=O)c2ccccc2n2c(SCC(=O)Nc3ccccc3F)nnc12 | -8.54 | 0.091 | 6.92 | -15.4 | 2.41
CC(C)CCN1C(=O)c2ccc(-c3ccco3)n2CC1(C)C(=O)NC1CCCC(C)C1C (stereo unspecified) | -3.07 | 0 | 3.62 | -6.45 | -0.937
Cc1cc(C(F)(F)F)nc(CCNC(=O)C2NCCc3[nH]cnc32)n1 (stereo unspecified) | -0.694 | -0.182 | 0.312 | -0.69 | 0.358
CCN1CCN(C(=O)c2cc3n(n2)CC(C)(C(=O)NC2CCCCCC2)N(C)C3=O)CC1 (stereo unspecified) | -0.111 | -3.99 | 1.41 | -7.93 | -3.82
O=C1CC(C(=O)Nc2cccc(Cl)c2)n2ncnc2N1 (stereo unspecified) | -3.7 | -2.42 | -2 | -3.21 | -7.31
CC(C)Cn1c(=O)c2ccc(C(=O)NC(C)C)cc2n2c(=O)n(Cc3ccccc3)nc12 | 1.91 | 8.52 | 1.31 | 1.45 | 0.201
COc1ccc(CNC(=O)CSc2nnc3n(CCC(C)C)c(=O)c4ccccc4n23)cc1 | 0.072 | 1.46 | -0.264 | -6.99 | -1.35
O=C(COc1ccccc1)N1CCc2nn(Cc3ccccc3)c(=O)n2CC1 | -2.22 | -2.39 | -0.364 | -4.21 | 0.944
CC1(C(=O)NC2CCCCC2)Cn2c(cc3sccc32)C(=O)N1C1CCCCC1 (stereo unspecified) | -0.093 | 0 | 1.99 | -5.93 | 0.286
